Experimental data as given in the supplement of paper PMC3334620.
Over roughly 33,000 sequences, “E-score (-0.5 to 0.5)” has its median near -0.056; the highest 2% begin near 0.38. Some of the results follow.

target: Stb4 (UniProt P50104); test: PBM E-score (8-mer binding enrichment) (E-score (-0.5 to 0.5)); higher = stronger / more preferred TF binding; most listed sequences are background and not binding sites; conditions: protein concentration: 200 nM; construct: GST-DNA-binding domain
Method in brief: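 PURExpress in vitro transcription/translation supplied GST-tagged yeast transcription factors, either full-length or DNA-binding domain. Applied at about 100-200 nM to universal all-10-mer Agilent arrays double-stranded by primer extension, the bound protein was detected with fluorescent anti-GST. E-scores, modified Wilcoxon-Mann-Whitney statistics, were given by the Universal PBM Analysis Suite to ungapped eight-base words pooled with their reverse complements after masliner normalisation.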

Sequence | PBM E-score
CACGCACA | -0.0835
AGGGAGCC | -0.0256
ACAATCAC | -0.233
CAATGGTA | -0.00861
CTGGCTAA | -0.189
AGATATCC | 0.184
AAATGATT | 0.138
ATGTCAGA | -0.0886
ACGATCGC | -0.111
AGCGAACA | -0.0423
CTACTGGA | -0.118
TCCGTGAA | 0.232
CACTTGAG | -0.265
GTAAAGGA | -0.0182
ACCCCCTA | -0.362
AGGGACAA | -0.0927
ACCAACCG | 0.164
GCGAGGCC | -0.243
GACCAGAA | -0.19
GGGCCTTA | -0.238
GCCGGGCC | 0.169
ACGAATAA | 0.0549
TCCTTGCA | 0.0581
AGCCCCCA | -0.387
GTTTCGAA | -0.145

Sequence | PBM E-score
AGGTCTCG | 0.00324
GCAGAACA | -0.0835
GTACGAAC | 0.077
CACGAACA | -0.0987
CGCCGGGA | 0.343
GCGCTCCC | 0.00333
CATGTATA | -0.276
ATGTTTGA | -0.104
TCCTGGCA | -0.127
ATAACGTA | 0.0685
ATGCTGTG | -0.243
TAAGAGCA | -0.193
GCTTAGAC | -0.18
ATGAGTGG | -0.209
CCAAGGCC | -0.149
GCGAATCA | -0.00549
CCCCTGGA | -0.099
CAATAAAG | 0.0196
ACGCGCAT | -0.0614
CTTGGTCA | -0.102
GCACGCTA | 0.049
GCGGAAGA | 0.317
CGCTCATC | -0.0735
CAGATCGC | 0.0154
ATATCCCC | 0.0386

Sequence | PBM E-score
GGGTCACC | -0.0719
AGCGGGAG | 0.12
AGGGCTAC | -0.176
AGCAGCTC | 0.00561
ATGGGTCC | 0.0523
CGCGTGTC | 0.104
TATGGGCA | -0.168
TGTTTAAA | -0.2
GCGGCCCC | -0.0368
AGGTCAGG | -0.172
ATCTGGAC | 0.0445
ATTTTAGC | 0.0784
GGATTTCA | 0.147
ATTAGGTG | -0.0979
ACAGCTAA | -0.173
ACCTGGTA | -0.218
ATCATTAG | -0.192
GAACAAGC | -0.135
GAAAAGCC | 0.0816
ATCATACA | -0.148
AGTCACTC | -0.0339
AGTTGATA | -0.119
GACTCACA | -0.218
CTGAACAG | -0.0299
CTCGATCA | -0.155

Sequence | PBM E-score
ACGCGAAA | -0.199
GGTATTCA | 0.0901
CACCTGTC | -0.0171
AGCACTCC | -0.0384
ACAGGGCA | -0.263
GTCTTATA | -0.184
CAGATAAG | -0.164
GCGCTGCA | -0.176
GTCCCGCA | 0.213
CTGGAACA | -0.0971
CCCGCTGC | 0.0999
CGCGCTGC | -0.161
ACGGTCCC | 0.0782
AGCAAACC | 0.0287
CGGTCACG | 0.0638
GCCGGCTA | 0.265
ATCTAGTC | 0.119
CGTCCTCC | 0.0587
AGCTAAAC | -0.13
CGTTATGA | 0.0695
AAAACTGT | -0.183
AAACTTAC | -0.17
AGAGTCGA | -0.0614
CTGACGAA | -0.234
GACGCTAA | -0.141

Sequence | PBM E-score
GCACTGCA | -0.113
ATGGGATC | -0.00477
CCCCACCA | 0.0228
GTTTTTAA | -0.0532
AACCCATA | 0.053
ACCGTCGG | 0.3
ATCGCCGG | 0.269
GCTCCACC | 0.0363
ACCCCTCG | 0.122
AGTGACTG | -0.205
AGCTCAAC | -0.083
AATGAAAT | -0.00997
AACTCGGT | 0.286
AAAAAGAA | 0.0798
GCTCTACC | -0.159
AACATTGT | -0.0501
AGTATCCC | -0.0361
TCTCTGAA | -0.305
ATAGAATC | 0.0315
AATTACGG | 0.216
ACATGATG | -0.119
ATGATGGC | -0.0488
AGCTACAA | -0.126
ACGAGAGA | -0.116
ATTCAGTC | -0.0427

Sequence | PBM E-score
AAAATAGA | 0.124
AAATCACA | 0.0724
AGCGGCCA | -0.0341
CGATCCCC | 0.126
CCCGTGCC | 0.271
GATGCTAC | -0.064
AGTGCTGC | -0.217
CAGTTATC | -0.00517
CAGGTTAA | -0.272
AAACTCTA | -0.032
CTATGAGA | -0.235
AAAATCTA | 0.0971
AACCCAGG | -0.167
ATTGCGAA | -0.0863
AGTCGGTA | 0.273
ACTCTACC | -0.0488
TGGAAGAA | 0.0743
ATCATGCC | -0.0651
GGTGGTAA | 0.166
GAGACTCC | -0.0168
CAAAAGTG | -0.308
CGCTGTCC | 0.0145
AGGAGAGA | -0.185
GTCAAGTA | -0.239
CGAAAGTC | 0.185

Sequence | PBM E-score
CACTGCGC | -0.0903
AAAGAGTG | -0.107
AGTAAAAG | 0.0577
GTCCACTA | -0.303
CCAGACCG | -0.0146
CATCCACC | 0.0619
GTAAGAAA | 0.00794
AACGAGTC | -0.0122
AGCCTCGC | -0.0941
AGCATTGG | -0.12
CATAACCA | -0.0583
ATTAGTGA | 0.00313
GTGAGTCA | -0.326
AGCCCGGC | 0.211
CCCACAGC | -0.145
AAAGTACT | 0.0129
ATAATTAG | 0.171
ACCATGTG | -0.171
AAAGCGTC | -0.194
TCCCATCA | -0.227
GCGTGGAA | -0.0528
GTACAAAC | -0.0206
TATGGTAA | 0.0509
GGCATGTA | 0.0372
CCCGACGA | 0.34

Sequence | PBM E-score
CCTAGTAG | -0.0242
ATTGATAA | -0.225
CCTGGTAA | -0.122
CAGATGGG | -0.21
ACCATCGT | -0.189
ACCGAATA | 0.215
CAAGACGG | 0.123
GTCCCGGA | 0.331
CACCATGC | -0.0998
GAGTTTTA | 0.00571
AGCACAAA | -0.00696
GCGGAATA | 0.278
GCATGAAC | -0.0456
CGGCGTTC | 0.202
GTGGCTTA | -0.317
CGGTAGGC | 0.146
CTTCCAAC | -0.152
CGCAGTCC | -0.114
GAGGCTTA | 0.0234
CGTAGCAA | -0.289
AGTGTACA | -0.176
AGGGGAGA | -0.0188
TTTTAAAA | -0.0647
TCTCGGCA | 0.446
CCCCTTAA | -0.225

Sequence | PBM E-score
ACACATAA | -0.108
GCACGCAC | -0.21
AACGGGAG | 0.258
TCACGCGA | -0.057
AAGCTGCT | -0.178
TAGACGGA | 0.164
GAGCTTTA | 0.0265
GCGGGACC | 0.247
CCTCGAGA | -0.185
ACCTCACT | -0.107
ACACGTAG | -0.291
CGTGACGA | -0.0351
TCCCGCAA | 0.166
ACACTACA | -0.0985
GGAGTTGA | 0.0931
ACGGAGGC | 0.116
GATCACGC | -0.0587
ACGAATAG | -0.303
CTCCTAGC | -0.167
CCAGTAGG | -0.194
TATTACCA | -0.0981
ACTCTCCG | 0.205
CCCCCCTC | -0.267
TATAGTAA | 0.0133
TAGTACGA | -0.0838

Sequence | PBM E-score
AAGCGCAT | -0.097
CGAGTCGC | 0.139
ACCAATTA | -0.163
GACAACAC | -0.0624
TATACAGA | -0.252
CGCATACA | -0.0747
GCGGTAGA | -0.0188
ACTCTTAT | -0.109
CATCGCAC | -0.124
TCAGGACA | -0.147
CGCGTCTC | -0.016
GACCGTTA | -0.0227
ACCCACTG | 0.152
CAGTACCC | -0.0162
GGCGTTCA | -0.0303
ACCTAAAA | -0.17
ATGGTTGG | 0.0462
AGTAATGG | -0.0854
ATTTCGTG | -0.141
AGGACCCG | 0.286
GAACCTTA | 0.219
CGCCAACA | 0.0585
CTTCTACA | -0.15
GCAGGGAA | 0.016
CTTGTAAA | 0.107

Sequence | PBM E-score
AATCGGAA | 0.425
AGCTTCCT | -0.104
AAAACCGT | 0.00511
GGGGAGGA | 0.0688
ATGATCAG | -0.213
CAGTAGTA | -0.167
TCGCATCA | 0.124
GAGTATCA | -0.0369
ACCACCAA | 0.031
ATGTGAAA | -0.196
ACAATTCT | -0.064
GCTGTAGA | -0.0384
CTCAGTGA | -0.292
AAGTGCTC | -0.0896
TCGTCCCA | -0.24
ATAGCCGA | 0.442
AACGCAGT | -0.152
CTAACAGC | 0.0685
CAGCCCTA | -0.0858
AATATATA | 0.122
ATTTGTAA | -0.0728
GGGTTCAC | 0.0402
CATAGACC | -0.0962
ATGCTGTA | -0.00315
GAGTATCC | 0.301

Sequence | PBM E-score
GGGATCTA | 0.0821
GATGGTCC | -0.0294
ACGCAATA | 0.0233
TATGTTGA | -0.195
CCAGGACA | -0.15
GACGTCCA | -0.112
AGTCAAGG | -0.214
ACACTTAC | -0.0158
GCTCGAAC | -0.139
GCGAGGAA | 0.107
GGCTCCAC | -0.128
CTAGAACC | -0.0142
ATCCGCAT | 0.348
AAACTTGT | -0.0579
CGATCTCA | -0.0194
GGGCCGAA | 0.314
CGGTTAGA | 0.348
CCCCGAGG | 0.375
ACATTGCA | -0.0752
ACGTTCTG | -0.0593
AACGCCCG | 0.206
CATGAAGC | 0.0769
AAATAGAC | -0.033
AGAGGTTG | -0.0907
GTACCATA | -0.182

Sequence | PBM E-score
CGTACGTC | -0.0706
AGTTCGCG | -0.047
ATAAAGCG | 0.111
CCGTCCGC | 0.143
GATGAGAA | -0.0842
CAGGGTGC | -0.047
AAGCAACA | -0.107
AACAGAGG | -0.0947
ACTCACAC | 0.147
GTCCAAAC | -0.195
ATGGCACC | -0.0451
AGTTTTAC | -0.0407
CGCGTTGC | 0.0107
CTTGACCA | -0.307
CGGGTGCC | 0.369
GGGGGTCA | -0.107
TGTTTGAA | -0.0497
AGAATTCG | -0.0695
ACGTGGTG | -0.151
GAACCAGA | -0.126
GGCCCCGA | 0.246
CAAGTTCC | 0.19
AGATAGAG | -0.138
ACTGTAAC | -0.216
CAGTTGAA | -0.264

Sequence | PBM E-score
ACGCATCA | -0.0856
AAGTAGCG | -0.161
CGGTCAAG | 0.171
GTATACCA | -0.124
AAACACTA | -0.0978
AAAAGGGA | -0.173
CGGCTAAA | 0.388
GACGCGTC | -0.0901
AACATGCG | -0.116
CCTAACGA | -0.232
AAAAAGAT | -0.0748
AGGAAGTA | 0.112
CTCCCCGC | 0.215
AGGATGCG | -0.0756
GTTCCGTA | 0.314
ACTAGAAG | -0.102
CGTAGAGA | -0.293
CTCGCCGC | 0.0149
AACCCGAG | 0.406
